# Assay results: the RNAGym collection of RNA variant scans (doi:10.7554/elife.90254)
# The source gives no read counts; variants with many changes may rest on few reads.
# B1: LINE1-full (parent)
# chain: UACGUAGGUGGUUUUCCCCUGAUAGUGCUAAGGGGGCCUGGAAGUUUGGACUGGGCAGAGCUCAACACAGCGUGGCAAAGUGGCUGUGGCUAGACUGCCUCUCUGGAUUCCUCGUCACUCAGCAGGGCAUCUCUGAGAGAAAUGCC
# Variants of: B1
# Assay: self-cleavage, relative activity (ratio to wild type); higher = more cleavage; in vitro, sequencing; the parent is a self-cleaving ribozyme
row,Variant,self-cleavage
1,UACGUAGGUGGUUUUCCCCUGAUAGUGCUAAGGGAGCCUGGAAGUUUGGACUGGGCAGAGCUCAACACAGCGCGGCAAAGUGGCUGUGGCUAGACUGCCUCUCUGGAUACCUCGUCACUCAGCAGGGCAUCUCUGUGAGAAAUGCC [G35A U73C U109A A136U],2.32
2,UACGUAGGUGGUUUUCCCCUGAUAGUGCUAAGGGAACCUAGAAGUUUGGACUGGGCAGAGCUCAACACAGCGUGGCAAAGUGGCUGUGGCUAGACUGCCUCCCUGGAUUCCUCGUCACUCAGCAGGGCAUCUCUGAGAGAAAUGCC [G35A G36A G40A U102C],1.13
3,UACGUAGGUGGUUUUCCCCUGAUAGUGCUAAGGGAGCCUGGAAGUUUGGACUGGGCAGAGCUCAACACGGCGCGGCAAAGUGGCUGUGGCUAGACUGCCUCUCUGGAUUCCUCGUCACUCAGCAGGGCAUCUCUGAGGGAAAUGCC [G35A A69G U73C A138G],0.38
4,UACGUAGGUGGUUUUCCCCUGAUAGUGCUAAGGGCGCCAGGAAGCUUGGACUGGGCAGAGCUCAACACAGCGUGGCAAAGUGGCUGUGGCUAGACUGCCUCUCUGGAUUCCUCGUCACUCAGCAGGGCCUCCCUGAGAGAAAAGCC [G35C U39A U45C A129C U132C U143A],1.06
5,UACGUAGGUGGUUUUCCCCUGAUAGUGCUAAGGGAGCCUGGAAGUUUGGACUGGGCAGAGCUCAACACAGCGUGGCAAAGUGGCUGUGGCUAGACUGCCUCUCUGGAUUCCUCGUCACUCAGCAGGACAUCUCUGAGAGAAGUGCC [G35A G127A A142G],0.92
6,UACGUAGGUGGUUUUCCCCUGAUAGUGCUAAGGGAGCCUGGAAGUUUGGACUGGGCAGAGCUCAACACAGCGUGGCAAAGUGGCUGUGGCUAGACUGCCUCUCUGGAUUCCUCGUCACUCAACUGGGCAUCUCUGAGAGAAAUGCC [G35A G122A A124U],1.27
7,UACGUAGGUGGUUUUCCCCUGAUAGUGCUAAGGGAGCCUGGAAGUUUGGACUGGGCAGAGCUCAACACUGCGUGGCAAAGAGGCUGUGGCUAGACUGCCUCUCUGGAUUCCUCGUCACUCAGCAGGGCAUCUCUGAGAGAAAUGCC [G35A A69U U81A],0.02
8,UACGUAGGUGGUUUUCCCCUGAUAGUGCUAAGGGAGCCUGGAAGUUUGGACUGGGCAGAGCUCAACACAGCGUGGCAAAGUGGCUGUGGCCAGACCGCCUCUCUGGAUUCCUCGUCACUCAGCAGGGCAUCUCUGAGAGAAAUGCC [G35A U91C U96C],0.05
9,UACGUAGGUGGUUUUCCCCUGAUAGUGCUAAGGGAGCCUGGAAGUUUGGACUGGGCAGAGCUCAACACAGCGUGGCAAGGUGGCUGUGGCUAGACUGCCUCUCUGGAUUCCUCGUCACUCAGCAGGGCUUCUCUGAGAGAAGUGCC [G35A A79G A129U A142G],0
10,UACGUAGGUGGUUUUCCCCUGAUAGUGCUAAGGGAGCCUGGAAGUUUGGACAGGGCAGGGCUCAACACAGCGUGGCAAAGUGGCUGUGGCUAGACUGCCUCUCUGGAUUCCUCGUCACUCAGCAGGGCAUCUCUGAGAGAGAUGCC [G35A U52A A59G A141G],0.07
11,UACGUAGGUGGUUUUCCCCUGAUAGUGCUAAGGGAGCCUGGAAGUUUGGACUGGGCAGAGCUCAACACAGCGUGGCAAAGAGGCAGUGGCUAGACUGCCCCUCUGGAUUCCUCGUCACUCAGCAGGGCAUCUCUGAGGGAAAUGCC [G35A U81A U85A U100C A138G],0.09
12,UACGUAGGUGGUUUUCCCCUGAUAGUGCUAAGGGAGCCUGGAAGCUUGGACUGGGCAGAGCUCAACACAGCGUGGCAAAGUGGCUGUGGCUAGACUGCCUCUCUGGAUUCCUCGUCACUCAGCAGGGCAUCACUGAGAGAAAUGCC [G35A U45C U132A],1.16
13,UACGUAGGUGGUUUUCCCCUGAUAGUGCUAAGGGCGCCUGGAAGUUUGGACUGGGCAGAGCUCAACACAGCGUGGCAAGGAGGCUGUGGCUCGACUGCCUCUCUGGAUACCUCGUCACUCAGCAGGGCAUCUCUGAGAGAAAUGCC [G35C A79G U81A A92C U109A],0.39
14,UACGUAGGUGGUUUUCCCCUGAUAGUGCUAAGGGAGCCUGGAAGUUUGGACUGGGCAGUGCUCAACACAGCGUGGCAAAGUGGCUGUGGCUAGACUGCCUCUCUGGACUCCUCGUCACUCAGCAGGGCGUCUCUGAGAGAGAUGCC [G35A A59U U108C A129G A141G],1.02
15,UACGUAGGUGGUUUUCCCCUGAUAGUGCUAAGGGAGCCUGGAAGUUUGGACUGGGCAGAGCUCAACACUGCGUGGCGAAGUGGCUGUGGCUAGGCUGCCUCCCUGGAUUCCUCGUCACUCAGCAGGGCAUCUCUGAGAGAAAUGCC [G35A A69U A77G A94G U102C],0
16,UACGUAGGUGGUUUUCCCCUGAUAGUGCUAAGGGAGCCUGGAAGUUUGGACCGGGCAGAGCUCAACACAGCGUGGCAAAGUGGCUGUGGCUAGACUGCCUCUCUGGAUUCCUCAUCACUCAGCAGGGCAUCUCUGAGAGAAACGCC [G35A U52C G114A U143C],0.72
17,UACGUAGGUGGUUUUCCCCUGAUAGUGCUAAGGGAGCCUGGAAGUUUGGACUGGGCAGAGCUCAACACAGCGUAGCAAAGUGGCUGUGGCUAGACUGCCUCUCUGGAUCCCUCGUCACUCAGCAGGGCAUCUCUGUGAGAAAUGCC [G35A G74A U109C A136U],0.69
18,UACGUAGGUGGUUUUCCCCUGAUAGUGCUAAGGGAGCCUGGAAGUUUGGACUGGGCAGAGCUCAACACUGCGUGGCAAAGUGGCUGUGGCUAGACUGCCUCUCUGGAUUCCCCGUCACUCAGCAGGGCAUCUCUGAGAGGAAUGCC [G35A A69U U112C A140G],0.03
19,UACGUAGGUGGUUUUCCCCUGAUAGUGCUAAGGGCGCCUGGAAGUUUGGACUGGGCAGAGCUCAACACAGCGUGGCAAAGUGGCUGUGGCUAGACUGCCCCUCUGGAUUCCUCGCCACUCAGCAGGGCAUCUCUGAGAGAAAUGCC [G35C U100C U115C],1.15
